# Test results as given in PubChem BioAssay AID463173 (ICCB-Longwood Screening Facility, Harvard Medical School, 2010).
# In all, about 52,000 compounds went through this assay and about 4,300 (8.3%) were called active. Cut-off read from the data, not from the text of the source: active = survival mostly below about 52% (no sharp cut-off); inactive = mostly above about 56%. This is one part of the list.
# Test system: DeltatarO mutant
# Assay: growth inhibition of S. aureus wild type versus tarO mutant, primary screen, teichoic acid synthesis inhibitors, RN4220, OD600 (AID 463173)
# Conditions: OD600, 18 h, stronger effect = lower value, screened at 18.75 µg/mL (by protocol)
row,SMILES,survival
1,CCc1ccccc1NC(=O)c1ccc2c(c1)CCCN2S(C)(=O)=O,inactive: 105%
2,COc1ccc2c(c1)c1c(c(=O)n(CCc3ccccc3)c(=O)n1Cc1cccc(F)c1)n2C,inactive: 67%
3,CCSc1nc2ccccc2c(OCc2ccc(Cl)cc2)c1C(=O)OC,inactive: 98%
4,CC(C)(C)OC(=O)N1CCC(c2c(C(=O)N3CCN(Cc4ccccc4)CC3)cnn2-c2cccc(Cl)c2)CC1,inactive: 78%
5,COc1ccc(Cn2c(CO)cnc2SCc2ccc(C)cc2)cc1,inactive: 128%
6,COc1cc(OC)c(NC(=O)Cn2ncn3c(cc4cc(C)ccc43)c2=O)cc1Cl,inactive: 99%
7,Cc1cccc(NC(=O)CSC2=Nc3ccccc3C3=NC(CCC(=O)NCc4ccco4)C(=O)N23)c1 (stereo not drawn),inactive: 82%
8,COc1ccc(CC(CN)c2ccccc2)cc1 (stereo not drawn),inactive: 101%
9,COC(=O)c1sccc1S(=O)(=O)N(CC(=O)Nc1cccc(C)c1C)c1ccc(C)c(C)c1,inactive: 89%
10,COc1ccccc1CNC(=O)Cn1cc2c(n1)-c1c(oc(C(=O)N3CCOCC3)c1C)CC2,inactive: 79%
11,CCc1ccc(-c2cn3nc(CC)sc3n2)cc1,inactive: 66%
12,CN(C)c1ccc(-c2nnc(SCC3CCCO3)n2C)cc1 (stereo not drawn),inactive: 82%
13,CCOC(=O)c1c(NC(=O)c2cc(-c3ccc(OC)c(OC)c3)on2)sc2c1CCCC2,inactive: 52%
14,CCc1c(C)sc2c1CCN(Cc1ccc(C#N)cc1)C2c1ccccc1 (stereo not drawn),inactive: 94%
15,O=C(CN1C(=O)CCSc2ccc(S(=O)(=O)N3CCCC3)cc21)Nc1cccc(F)c1,inactive: 72%
16,COC(=O)CC1Oc2ccccc2-n2cc(-c3ccc(F)cc3)nc21 (stereo not drawn),inactive: 65%
17,COc1cc(C(c2c(C)[nH][nH]c2=O)c2c(C)[nH][nH]c2=O)ccc1OC(=O)c1ccccc1OC,inactive: 143%
18,CCOC(=O)C(C)NC(=O)c1c2c(nc3ccccc13)C(=O)N(C1CCCCC1)C2 (stereo not drawn),inactive: 107%
19,COc1ccc(CCNC(=O)CN(c2ccccc2)S(=O)(=O)N(C)C)cc1OC,inactive: 62%
20,CCc1cccc(C)c1NC(=O)CSc1nc2ccccc2nc1Cc1ccccc1,inactive: 69%
21,Cc1ccc(NC(=O)c2oc3ccc(S(=O)(=O)N4CCC5(CC4)OCCO5)cc3c2C)cc1Cl,inactive: 98%
22,CC(=O)N1CCC(N(CCCOC(C)C)C(=O)Nc2ccc(C)c(C)c2)CC1,inactive: 84%

row,SMILES,survival
1,COc1ccc(-c2nc3cc(NC(=O)COc4ccccc4C)ccc3o2)cc1,inactive: 60%
2,CC1CCN(CC(=O)Nc2ccc(F)cc2)CC1,inactive: 105%
3,O=C(CCNS(=O)(=O)c1ccc2c(c1)CCN2C(=O)C1CC1)N1CCN(c2cccc(Cl)c2)CC1,inactive: 122%
4,CCOc1ccc(/C=C/C(=O)Nc2ccc3nc(N(CC)CC)cc(C)c3c2)cc1OC,inactive: 52%
5,Cc1ccc(C)c(NC(=S)NC2CC3CCC(C2)N3Cc2ccco2)c1 (stereo not drawn),inactive: 76%
6,C=CC[N+]1(CC=C)CCOCC1,inactive: 84%
7,CCC(=O)N1c2ccc(S(=O)(=O)CCC(=O)Nc3ccc(OC)cc3OC)cc2CC1C (stereo not drawn),inactive: 83%
8,CCc1ccc(C2c3c(-c4ccccc4O)n[nH]c3C(=O)N2Cc2cccnc2)cc1 (stereo not drawn),active: 34%
9,COc1ccc(Nc2nn3c(=O)c4cc5c(cc4nc3s2)OCO5)c(OC)c1,inactive: 146%
10,CC(=O)OC1CC(C)N(C(=O)c2ccccc2)c2ccc(C)cc21 (stereo not drawn),inactive: 67%
11,Cc1ccc2c(CC(=O)Nc3ccc(S(=O)(=O)N4CCCCC4)cc3)coc2c1C,inactive: 67%
12,COc1cc(CN(C(=O)c2ccccc2F)C2CCS(=O)(=O)C2)cc(OC)c1OC (stereo not drawn),inactive: 46%
13,CCCS(=O)(=O)N1CC(=O)N(c2ccc(C)c(Cl)c2)C(C)(C(=O)NC2CCCCCC2)C1 (stereo not drawn),inactive: 82%
14,CCCCNC(=O)CCCN1C(=O)c2ccccc2Sc2ncccc21,inactive: 68%
15,Oc1c(C(c2ccc(F)cc2)N2CCN(Cc3ccccc3)CC2)sc2nc(-c3ccco3)nn12 (stereo not drawn),inactive: 73%
16,CN1C(=O)C2(c3ccccc31)N(c1cccc(C(F)(F)F)c1)C(=O)CS2(=O)=O (stereo not drawn),inactive: 68%
17,CCC(=O)N1CCc2cc(CNS(=O)(=O)c3ccc(CC(C)C)cc3)ccc21,inactive: 79%
18,CCN1CCN(c2ncc3c(n2)CCN(Cc2ccccc2C)C3)CC1,active: -1%
19,CCc1ccc(-n2nc(CO)c(C(=O)NC)n2)cc1,inactive: 44%
20,COc1ccc(-c2nc(CS(=O)CC(=O)NCCc3ccc(Cl)cc3)c(C)o2)cc1OC (stereo not drawn),inactive: 72%
21,CC(C)CCNC(=O)C1CCN(C(=O)c2cc3sccc3n2Cc2ccc(Cl)cc2)CC1,active: 40%
22,Cc1ccc(CS(=O)(=O)c2ncc(Cl)c(C(=O)Nc3nnc(C(C)C)s3)n2)cc1,inactive: 54%

row,SMILES,survival
1,Cc1ccccc1-c1noc(-c2ccc(N3CCN(c4ccccc4)CC3)c([N+](=O)[O-])c2)n1,inactive: 87%
2,O=C(NCc1cccnc1)c1ccc(NC(=O)c2ccco2)cc1,inactive: 96%
3,CC(=O)OCc1cc(=O)n2nc(C3CCCCC3)sc2n1,inactive: 84%
4,O=C(COc1ccccc1)Nc1sc2c(c1C(=O)Nc1ccccc1Cl)CCCCC2,active: 56%
5,CCN(Cc1nc(-c2cccc(C)c2)no1)S(=O)(=O)c1ccc(C)cc1,active: 43%
6,Cc1ccc(C)c(N2C(=O)N(Cc3c(F)cccc3Cl)c3ccccc3S2(=O)=O)c1,inactive: 77%
7,COc1ccc(N(CC(=O)Nc2ccc(C)c(C)c2)S(=O)(=O)c2ccc(C)cc2)cc1OC,inactive: 55%
8,CC1CCCCN1C(=O)Cn1cc(C(=O)C2CC2)c2ccccc21 (stereo not drawn),inactive: 88%
9,Cc1cccc(C)c1NC(=O)CN1C(=O)CCSc2ccc(S(=O)(=O)N3CCCC3)cc21,inactive: 84%
10,COC(=O)c1cc(NC(=O)Nc2ccc3snnc3c2)cc(C(=O)OC)c1,inactive: 72%
11,COc1ccc(-c2nsc3c(N4CCN(S(=O)(=O)c5cccc(F)c5)CC4)ncnc23)cc1,inactive: 98%
12,CC(=O)c1ccc(N2CCN(c3ncnc4c3c(-c3ccccc3)cn4-c3ccc(C)c(Cl)c3)CC2)cc1,inactive: 89%
13,CC(C)Cn1c(=O)c2ccccc2n2c(CCC(=O)N3CCN(c4cccc(Cl)c4)CC3)nnc12,inactive: 76%
14,COCCCN(Cc1ccco1)C(=O)c1cc2c(s1)-c1ccccc1OC2,active: -3%
15,Cc1ccc(NC(=O)C(=O)NCC(c2cccnc2)N2CCOCC2)cc1 (stereo not drawn),inactive: 82%
16,CC1CCN(C(=O)c2ccc3c(c2)N(Cc2ccccc2F)C(=O)c2ccccc2S3(=O)=O)CC1,inactive: 80%
17,COc1ccc(S(=O)(=O)n2nc(C)c(S(=O)(=O)N3CCCCC3)c2C)cc1,inactive: 67%
18,Cc1c(Cl)cccc1-n1ncc(C(=O)N2CCN(C)CC2)c1C1CCN(C(=O)OC(C)(C)C)CC1,inactive: 94%
19,COc1ccc(CNC(=O)Cn2nc(C)n3cccc3c2=O)cc1,inactive: 96%
20,COc1ccc(-c2nc(SCC(=O)NC3CCCC3)c(-c3ccc(OC)cc3)[nH]2)cc1,inactive: 71%
21,COc1ccccc1N1CCN(C(=O)c2cc3c(=O)n(C)c4ccccc4c3s2)CC1,inactive: 73%
22,COc1ccc(S(=O)(=O)N(CCc2ccccc2)CC(=O)NCc2ccccc2)cc1,inactive: 76%

row,SMILES,survival
1,COCCN1C(=O)c2oc3cc(C)cc(C)c3c(=O)c2C1c1cccc(O)c1 (stereo not drawn),inactive: 71%
2,COc1ccc(CNC(=O)c2cc3c(-c4ccc(Cl)cc4)nn(C)c3s2)cc1,inactive: 112%
3,CCOC(=O)c1cccc(NC(=O)Cn2nc3c(cc2=O)CCCC3)c1,active: 37%
4,Cn1c(=O)n(C)c2cc(NS(=O)(=O)c3ccc(F)cc3)c(NCc3ccccc3)cc21,inactive: 68%
5,Cc1ccc(N2CC(C(=O)NCCS(=O)(=O)N3CCN(c4ccccc4)CC3)CC2=O)cc1 (stereo not drawn),inactive: 77%
6,COc1ccc(CCNC(=O)Cn2cc(C(=O)c3ccc(Cl)cc3)c(=O)c3ccc(C)nc32)cc1OC,inactive: 79%
7,CCOC(=O)C1CCN(c2nc3c(S(=O)(=O)c4ccc(Br)cc4)nnn3c3ccsc23)CC1,inactive: 76%
8,FC(F)(F)c1cccc(-n2cc(-c3ccccc3)c3c(N4CCCCC4)ncnc32)c1,inactive: 83%
9,CCCN(CCC)CCNC(=O)Cn1cnc2sc(C)c(S(=O)(=O)N3CCC(C)CC3)c2c1=O,inactive: 67%
10,COc1ccc(C(=O)NCCn2cc(SCc3cccc(F)c3)c3ccccc32)cc1OC,inactive: 52%
11,COc1ccccc1CNC(=O)CN1C(=O)CCc2cc(S(=O)(=O)N3CCCCC3)ccc21,inactive: 81%
12,O=C(CSc1nc(-c2cccs2)nc2cc(=O)[nH]n12)Nc1ccccc1,inactive: 73%
13,Cc1nn(-c2ccc(N3CCCCC3)nn2)c(C)c1CCC(=O)NCc1ccc(F)cc1,inactive: 86%
14,CCc1ccccc1NC(=O)CN1C(=O)CCn2nc(-c3cccn3C)cc21,inactive: 79%
15,Cc1ccc(-c2c(CN3CCN(c4cc(C)ccc4C)CC3)csc2C)cc1,inactive: 126%
16,Cc1c(C(=O)NC(C)c2ccccc2)sc2ncnc(N(C)C3CCCCC3)c12 (stereo not drawn),inactive: 105%
17,O=S(=O)(Nc1ccc(-c2ccc(N3CCCCC3)nn2)cc1)c1ccc(OC(F)(F)F)cc1,inactive: 82%
18,CCN(CC)C(=O)CSc1nnc2ccc3ccccc3n12,inactive: 73%
19,CCc1c(C)nc2c(C)cccc2c1Cl,inactive: 100%
20,COCCn1c(C)cc(O)c(C(c2ccccc2)N2CCC(C)CC2)c1=O (stereo not drawn),inactive: 78%
21,CCc1ccccc1Nc1cc(C(=O)NCc2ccc(C)cc2)c2ccccc2n1,inactive: 69%
22,COc1ccc(N2C(=O)CSC23C(=O)N(C)c2ccccc23)cc1Cl (stereo not drawn),inactive: 82%
